# Hit rate of the full screen: of about 420,000 compounds, about 64,000 (15%) were called active. The shares of active, inactive and inconclusive entries below differ from those in the screen. The call rests on the fitted dose curve; in most records, active means well fitted inhibition curve with a large enough effect; inconclusive means small, poorly fitted or top-dose-only effect; inactive means flat fitted curve, though single readings scatter. Potencies of inconclusive entries are left out as doubtful fits.
# Test: qHTS for Inhibitors of human tyrosyl-DNA phosphodiesterase 1 (TDP1): qHTS in cells in absence of CPT; further: nearly all actives have a fitted effect of over 55% in size
# Settings: DT40 Tdp1-/- hTDP1 cells, no CPT, ATP luminescence, 48 h; series mostly up to 46.2 µM
# How it was run: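 Compound effects on proliferation are scored in DT40 Tdp1-/-;hTDP1 cells in the absence of CPT. ATP levels (CellTiter-Glo luminescence) are recorded after a ≥48 hr, 37 °C incubation.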
# Potency means the concentration at half of the fitted maximal effect; tags describe the fitted curve by direction and shape.
row,Structure (SMILES),Potency
1,Cc1scc(C(=O)N2CCN(c3ccc(Cl)cc3)CC2)c1C,"inconclusive [inhibitor, partial curve, poor fit]"
2,Cc1c(NC(=O)C(=O)/C=C(/O)c2ccccc2)c(=O)n(-c2ccccc2)n1C,inactive
3,Cc1ccc(C)c(NC(=O)CN(C)S(=O)(=O)c2cccc3nsnc23)c1,"inconclusive [inhibitor, single point]"
4,COCCCNC(=O)COc1ccc2oc3c(c2c1)CCCC3,"inconclusive [inhibitor, single point]"
5,CCN(CC)c1nc2ccccc2nc1C(=O)Nc1ccc(C(C)=O)cc1,"inconclusive [inhibitor, single point]"
6,CC(=O)N(C)c1ccc(OCC(O)Cn2c(C)nc3ccccc32)cc1 (stereo not drawn),active: 6.51 µM
7,COc1ccc(S(=O)(=O)N2CCN(C(=O)CCc3c[nH]c4ccccc34)CC2)cc1,"inconclusive [inhibitor, single point]"
8,COc1ccc(NC(=O)c2ccc(-n3cccn3)c([N+](=O)[O-])c2)cc1,"inconclusive [inhibitor, partial curve]"
9,Cc1ccc(-c2nc(-c3cccnc3)sc2CC(=O)O)cc1,inactive
10,CCOc1ccc(/C=N/Nc2ccccn2)cc1,"inconclusive [inhibitor, single point]"
11,Cc1ccc(C(CNS(=O)(=O)c2ccc(Cl)cc2)N2CCN(C)CC2)cc1 (stereo not drawn),"inconclusive [inhibitor, single point]"
12,COc1ccc(C2(OC)Oc3cc(OC)ccc3C(=O)C2(O)OC)cc1 (stereo not drawn),"inconclusive [inhibitor, single point]"
13,Cc1nc2ccccc2c(=O)n1/N=C/c1ccccc1F,inactive
14,Clc1ccc2nc(C3CCCCC3)c(Cc3ccsc3)n2c1,"inconclusive [inhibitor, single point]"
15,CC(=O)Nc1ccc(CNc2nc3cc(-c4ccsc4)sc3c(=O)n2C)cc1,"inconclusive [inhibitor, single point]"
16,Cc1ccc(-n2nc(C(=O)Nc3ccc(F)cc3F)c3c4ccccc4n(C)c3c2=O)cc1,inactive
17,CC(C)c1ccc(/C=C2\C=Cc3ccccc32)cc1,"inconclusive [inhibitor, single point]"
18,CCc1ccc(-n2c(SCc3c(C)noc3C)nnc2-c2ccncc2)cc1,"inconclusive [inhibitor, single point]"
19,CCC(NC(=O)c1ccc([N+](=O)[O-])cc1[N+](=O)[O-])c1ccccc1 (stereo not drawn),"inconclusive [inhibitor, single point]"
20,O=C(CCN1C(=O)/C(=C/c2ccc(F)cc2)SC1=S)NCCc1cnc[nH]1,inactive
21,Cc1nn(Cc2cccc(F)c2)c(C)c1NC(=O)c1ccc(COc2ccccc2Cl)cc1,"inconclusive [inhibitor, single point]"
22,c1ccc(Cn2c3ccccc3c3nnc(SCCN4CCCCC4)nc32)cc1,active: 23.1 µM
23,NC(=O)CC(NC(=O)c1ccc(Br)cc1)c1ccc(NC2CCCCCC2)c([N+](=O)[O-])c1 (stereo not drawn),active: 16.4 µM

row,Structure (SMILES),Potency
1,CS(=O)(=O)N(CC(=O)N1CCCC1)c1cc(Cl)c(Cl)cc1Cl,"inconclusive [inhibitor, single point]"
2,CCN1C(=O)C2(C(C#N)=C(N)Oc3n[nH]c(-c4ccc(Cl)cc4)c32)c2ccccc21 (stereo not drawn),"inconclusive [inhibitor, single point]"
3,COc1ccc(C2=NN(C(=O)CSc3nc(=O)n4cccc(C)c4n3)C(c3ccc(C)cc3)C2)cc1 (stereo not drawn),"inconclusive [inhibitor, single point]"
4,Cc1ccc(C)c(NC(=O)Cn2c(=O)n(CCC(C)C)c(=O)c3cccnc32)c1,inactive
5,Cc1c(Cl)cccc1NC(=O)CN1CCN(CCO)CC1,inactive
6,O=C(Nc1nc(-c2ccc(Cl)cc2)cs1)C1=COCCO1,active: 23.1 µM
7,Cc1ccc(C(=O)NC(=S)Nc2ccc(N3CCOCC3)cc2)cc1,active: 29.1 µM
8,COc1ccccc1NC(=O)CN1CCN(CC(=O)Nc2ccc(Cl)c(C(F)(F)F)c2)CC1,active: 13 µM
9,Nc1ncnc2c1ncn2[C@@H]1O[C@H](CNC(=O)[C@@H]2C[C@H](F)CN2)[C@@H](O)[C@H]1O,inactive
10,O=C1c2ccccc2C(=O)N1CC(O)Cn1nnc2ccccc21 (stereo not drawn),inactive
11,CC1(C(=O)OCC(=O)Nc2cc(S(=O)(=O)N3CCOCC3)ccc2Cl)CC1(Cl)Cl (stereo not drawn),"inconclusive [inhibitor, single point]"
12,Cc1cccc(COc2ccc(/C=N/NC(=O)c3nnn(-c4nonc4N)c3COc3ccc(F)cc3)cc2)c1,"inconclusive [inhibitor, single point]"
13,O=C(Nc1ccc2ccccc2c1)C(c1ccc(C(F)(F)F)cc1)n1c(=O)c(-c2cc3ccccc3[nH]2)nc2ccccc21 (stereo not drawn),"inconclusive [inhibitor, single point]"
14,Cc1ccc(O)c(-c2cc(-c3ccccc3F)[nH]n2)c1,"inconclusive [inhibitor, single point]"
15,Cc1cccc(OCCCC(=O)Nc2ccc(S(=O)(=O)Nc3nccs3)cc2)c1C,inactive
16,Cc1nn(-c2ccccc2)c2c1C(c1ccc(O)c(O)c1)N1C(=N2)C(Nc2ccccc2)=Nc2ccccc21 (stereo not drawn),inactive
17,COc1ccccc1NC(=O)Cn1cc(S(=O)(=O)Cc2ccccc2)c2ccccc21,"inconclusive [inhibitor, single point]"
18,O=C(COC(=O)CNS(=O)(=O)c1ccccc1)Nc1ncc(Cl)cc1Cl,active: 6.51 µM
19,Cc1cccc(Cc2cccc(C)c2O)c1O,"inconclusive [inhibitor, partial curve, poor fit]"
20,COC(=O)c1c(NC(=O)COC(=O)[C@@H](NS(=O)(=O)c2cccc(Cl)c2)C(C)C)sc2c1CCC2,"inconclusive [inhibitor, single point]"
21,COc1ccc(CC(=O)Nc2ccc3c(c2)OC2(CCCC2)O3)c(OC)c1,"inconclusive [inhibitor, single point]"
22,CCOc1cc(/C=N/NC(=O)c2ccc(CSc3nncn3C)cc2)ccc1OCC(=O)N1CCOCC1,inactive
23,Cc1ccc(-n2cccn2)c(CN2CCCC(C(=O)c3ccc4c(c3)OCO4)C2)c1 (stereo not drawn),"inconclusive [inhibitor, single point]"

row,Structure (SMILES),Potency
1,CCOC(=O)Cc1cnc(NC(=O)CSc2nc(N)cc(=O)[nH]2)s1,"inconclusive [inhibitor, single point]"
2,Fc1ccc(CNc2ncnc3cc(Cl)ccc23)cc1,"inconclusive [inhibitor, partial curve, poor fit]"
3,OCC1(Cc2ccccc2)CCCN(C2CCCC2)C1 (stereo not drawn),inactive
4,O=C(NCc1cccnc1)c1cc(C2CCCCN2C(=O)OCc2ccccc2)on1 (stereo not drawn),"inconclusive [inhibitor, single point]"
5,COc1ccc(C2Oc3ccccc3C3=C2C(c2cccs2)n2ncnc2N3)cc1 (stereo not drawn),active: 23.1 µM
6,Cc1ccc2c(COC(=O)CC3Sc4ccccc4NC3=O)cc(=O)oc2c1C (stereo not drawn),"inconclusive [inhibitor, single point]"
7,CC1CCCN(CC(=O)Nc2cc(S(=O)(=O)N3CCOCC3)ccc2N2CCCC2)C1 (stereo not drawn),"inconclusive [inhibitor, single point]"
8,Cc1ccc(-c2nnn(CC(=O)NC(=O)NC3CCCCC3)n2)cc1,"inconclusive [inhibitor, single point]"
9,Cc1cccc(NC(=O)CSc2nc3c(c(=O)[nH]2)CCC3)c1C,inactive
10,COC(=O)c1c(NC(=O)CN2C(=O)NC3(CCC(C)CC3)C2=O)sc2c1CCC2 (stereo not drawn),active: 16.4 µM
11,COc1ccc(N2CCN(C(=O)CS(=O)Cc3nc(-c4ccc(OC)c(OC)c4)oc3C)CC2)cc1 (stereo not drawn),"inconclusive [inhibitor, single point]"
12,CC(C)(C)c1ccccc1OCC(=O)NCc1ccccc1,"inconclusive [inhibitor, single point]"
13,COc1ccc(Cc2nnc(Cl)c3ccccc23)cc1OC,inactive
14,N=c1n(CCO)c2ccccc2n1Cc1ccc(Cl)cc1,active: 16.4 µM
15,Cc1ccc(NC(=O)CSc2nc(=O)n(Cc3cccnc3)c3c2CCC3)cc1F,"inconclusive [inhibitor, single point]"
16,C/C(=N\NC(=O)c1ccc(=O)[nH]n1)c1cccnc1,inactive
17,CCCCCCn1nc(C(=O)N(CCOC)c2c(N)n(CCCC)c(=O)[nH]c2=O)c2ccccc2c1=O,"inconclusive [inhibitor, partial curve]"
18,Cn1c(=S)[nH]c2cc(C(=O)N3CCN(Cc4cccs4)CC3)ccc2c1=O,"inconclusive [inhibitor, single point]"
19,COc1ccc(NC(=O)Cn2nnc(C(=O)NCc3cccs3)c2N)cc1,"inconclusive [inhibitor, single point]"
20,COc1cc(NC(=O)CN2CCN(S(=O)(=O)c3ccc(C(C)C)cc3)CC2)cc(OC)c1,"inconclusive [inhibitor, single point]"
21,O=c1c(/C=C(\O)c2ccc(F)cc2)nc2ccccc2n1-c1ccccc1,"inconclusive [inhibitor, single point]"
22,C=CC[C@@H](CC(=O)N(CCO)Cc1ccccc1)C(=O)N[C@@H](COC(=O)[C@@H](CC=C)CC(=O)OC(C)(C)C)Cc1c[nH]c2ccccc12,active: 20.6 µM

# — PubChem BioAssay AID686978 (National Center for Advancing Translational Sciences (NCATS), 2013)
